# The supplement of paper PMC4604168 (melanoma cell lines)
# Some of the results follow. Most values come without repeats; read them as rough.
# What was measured:
# Test in all cases: cell count relative to DMSO control; melanoma cells; higher = more viable cells
# Settings in all cases: library dose: low library concentration; 72 h
# WM115 = system: WM115
# WM1716 = system: WM1716
# WM1745 = system: WM1745
# WM3526 = system: WM3526
# WM3619 = system: WM3619
# WM451Lu = system: WM451Lu
# 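Further: cell number obtained by counting DAPI-stained nuclei in high-throughput microscope images with image analysis software, screen run in 1,536-well plates.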
smiles,measurement,setting,value
"CS(=O)(=O)CCNCc1ccc(-c2ccc3ncnc(Nc4ccc(OCc5cccc(F)c5)c(Cl)c4)c3c2)o1 [lapatinib] + COc1ccc(Cl)c(Nc2nc3ccccc3nc2NS(=O)(=O)c2cccc(NC(=O)C(C)(C)N)c2)c1 [XL147] (first compound 0.8 µM, partner dose 0.8 µM)",cell count,WM115,104%
same,cell count,WM1716,97.5%
same,cell count,WM1745,84.3%
same,cell count,WM3526,111%
same,cell count,WM3619,106%
same,cell count,WM451Lu,95.6%
"CS(=O)(=O)CCNCc1ccc(-c2ccc3ncnc(Nc4ccc(OCc5cccc(F)c5)c(Cl)c4)c3c2)o1 [lapatinib] + CC(=O)c1c(C)c2cnc(Nc3ccc(N4CCNCC4)cn3)nc2n(C2CCCC2)c1=O [palbociclib] (first compound 0.8 µM, partner dose 0.04 µM)",cell count,WM115,89.6%
same,cell count,WM1716,75.4%
same,cell count,WM1745,75%
same,cell count,WM3526,55.4%
same,cell count,WM3619,66.2%
same,cell count,WM451Lu,86.2%
"C[C@@H](Oc1cc(-c2cnn(C3CCNCC3)c2)cnc1N)c1c(Cl)ccc(F)c1Cl [Crizotinib] + COc1cc2c(Oc3ccc4[nH]c(C)cc4c3F)ncnc2cc1OCCCN1CCCC1 [cediranib] (first compound 0.2 µM, partner dose 0.4 µM)",cell count,WM115,99.5%
same,cell count,WM1716,113%
same,cell count,WM1745,97%
same,cell count,WM3526,102%
same,cell count,WM3619,121%
same,cell count,WM451Lu,91.7%
"CS(=O)(=O)CCNCc1ccc(-c2ccc3ncnc(Nc4ccc(OCc5cccc(F)c5)c(Cl)c4)c3c2)o1 [lapatinib] + Cc1cc(N2CCOCC2)cc2[nH]c(-c3c(NC[C@@H](O)c4cccc(Cl)c4)cc[nH]c3=O)nc12 [BMS536924] (first compound 0.8 µM, partner dose 0.2 µM)",cell count,WM115,90.6%
same,cell count,WM1716,118%
same,cell count,WM1745,73.7%
same,cell count,WM3526,91%
same,cell count,WM3619,94.4%
same,cell count,WM451Lu,109%
"C[C@@H](Oc1cc(-c2cnn(C3CCNCC3)c2)cnc1N)c1c(Cl)ccc(F)c1Cl [Crizotinib] + Cc1cc([N+](=O)[O-])ccc1NS(=O)(=O)c1cc(Cl)ccc1Cl [FH535] (first compound 0.2 µM, partner dose 1 µM)",cell count,WM115,97.7%
same,cell count,WM1716,98.1%
same,cell count,WM1745,93.5%
same,cell count,WM3526,96.6%
same,cell count,WM3619,107%
same,cell count,WM451Lu,94.7%
"CS(=O)(=O)CCNCc1ccc(-c2ccc3ncnc(Nc4ccc(OCc5cccc(F)c5)c(Cl)c4)c3c2)o1 [lapatinib] + Oc1nc(-c2ccc(C(F)(F)F)cc2)nc2c1CSCC2 [XAV939] (first compound 0.8 µM, partner dose 2 µM)",cell count,WM115,96.2%
same,cell count,WM1716,83.9%
same,cell count,WM1745,89.7%
same,cell count,WM3526,94.3%
same,cell count,WM3619,85.6%
same,cell count,WM451Lu,110%
"CN1CCN(c2ccc3nc(-c4c(N)c5c(F)cccc5[nH]c4=O)[nH]c3c2)CC1 [Dovitinib] + c1cc(-c2cnn3cc(-c4ccc(OCCN5CCCCC5)cc4)cnc23)ccn1 [Dorsomorphin] (first compound 0.1 µM, partner dose 0.4 µM)",cell count,WM115,89%
same,cell count,WM1716,113%
same,cell count,WM1745,84.9%
same,cell count,WM3526,41%
same,cell count,WM3619,112%
same,cell count,WM451Lu,110%
"C=CCNC1=C2C[C@@H](C)C[C@H](OC)[C@H](O)[C@@H](C)/C=C(\C)[C@H](OC(N)=O)[C@@H](OC)/C=C\C=C(/C)C(=O)NC(=CC1=O)C2=O [Tanespimycin] + CO[C@@H]1[C@H](N(C)C(=O)c2ccccc2)C[C@H]2O[C@]1(C)n1c3ccccc3c3c4c(c5c6ccccc6n2c5c31)C(=O)NC4 [Midostaurin] (first compound 0.002 µM, partner dose 0.08 µM)",cell count,WM115,80.4%
same,cell count,WM1716,77%
same,cell count,WM1745,67.3%
same,cell count,WM3526,102%
same,cell count,WM3619,101%
same,cell count,WM451Lu,57.7%
"CN1CCN(c2ccc3nc(-c4c(N)c5c(F)cccc5[nH]c4=O)[nH]c3c2)CC1 [Dovitinib] + Nc1ccn([C@@H]2O[C@H](CO)[C@@H](O)C2(F)F)c(=O)n1 [gemcitabine] (first compound 0.1 µM, partner dose 0.0004 µM)",cell count,WM115,97.6%
same,cell count,WM1716,112%
same,cell count,WM1745,68.6%
same,cell count,WM3526,78.7%
same,cell count,WM3619,89%
same,cell count,WM451Lu,81.1%
"C=CCNC1=C2C[C@@H](C)C[C@H](OC)[C@H](O)[C@@H](C)/C=C(\C)[C@H](OC(N)=O)[C@@H](OC)/C=C\C=C(/C)C(=O)NC(=CC1=O)C2=O [Tanespimycin] + Cn1nnc2c(C(N)=O)ncn2c1=O [temozolomide] (first compound 0.002 µM, partner dose 2 µM)",cell count,WM115,89.8%
same,cell count,WM1716,96.6%
same,cell count,WM1745,84.6%
same,cell count,WM3526,78.2%
same,cell count,WM3619,71.5%
same,cell count,WM451Lu,90.6%
"C[C@@H](Oc1cc(-c2cnn(C3CCNCC3)c2)cnc1N)c1c(Cl)ccc(F)c1Cl [Crizotinib] + COC(=O)c1sccc1S(=O)(=O)Nc1ccc(Nc2ccccc2)cc1OC [GSK0660] (first compound 0.2 µM, partner dose 1 µM)",cell count,WM115,102%
same,cell count,WM1716,78.6%
same,cell count,WM1745,99.2%
same,cell count,WM3526,88.6%
same,cell count,WM3619,107%
same,cell count,WM451Lu,77.7%
"C[C@@H](Oc1cc(-c2cnn(C3CCNCC3)c2)cnc1N)c1c(Cl)ccc(F)c1Cl [Crizotinib] + O=C(O)c1ccc2c(c1)nc(Nc1cccc(Cl)c1)c1ccncc12 [CX4945] (first compound 0.2 µM, partner dose 0.4 µM)",cell count,WM115,105%
same,cell count,WM1716,98.1%
same,cell count,WM1745,88.2%
same,cell count,WM3526,82.3%
same,cell count,WM3619,112%
same,cell count,WM451Lu,89.1%
"CN1CCN(c2ccc3nc(-c4c(N)c5c(F)cccc5[nH]c4=O)[nH]c3c2)CC1 [Dovitinib] + C#Cc1cccc(Nc2ncnc3cc(OCCOC)c(OCCOC)cc23)c1 [erlotinib] (first compound 0.1 µM, partner dose 0.8 µM)",cell count,WM115,104%
same,cell count,WM1716,96.6%
same,cell count,WM1745,73.9%
same,cell count,WM3526,97.2%
same,cell count,WM3619,94.7%
same,cell count,WM451Lu,89.9%
"CS(=O)(=O)CCNCc1ccc(-c2ccc3ncnc(Nc4ccc(OCc5cccc(F)c5)c(Cl)c4)c3c2)o1 [lapatinib] + Nc1ccn([C@@H]2O[C@H](CO)[C@@H](O)C2(F)F)c(=O)n1 [gemcitabine] (first compound 0.8 µM, partner dose 0.0004 µM)",cell count,WM115,81.8%
same,cell count,WM1716,108%
same,cell count,WM1745,89.7%
same,cell count,WM3526,109%
same,cell count,WM3619,101%
same,cell count,WM451Lu,94.7%
"CNC(=O)c1cc(Oc2ccc(NC(=O)Nc3ccc(Cl)c(C(F)(F)F)c3)cc2)ccn1 [sorafenib] + Nc1cccc2c1CN(C1CCC(=O)NC1=O)C2=O [lenalidomide] (first compound 0.4 µM, partner dose 1 µM)",cell count,WM115,107%
same,cell count,WM1716,82.6%
same,cell count,WM1745,84.7%
same,cell count,WM3526,114%
same,cell count,WM3619,91.4%
same,cell count,WM451Lu,103%
"C=CCNC1=C2C[C@@H](C)C[C@H](OC)[C@H](O)[C@@H](C)/C=C(\C)[C@H](OC(N)=O)[C@@H](OC)/C=C\C=C(/C)C(=O)NC(=CC1=O)C2=O [Tanespimycin] + COc1ccc2c(c1)CCC1C2CCC2(C)C(NCCCCCCN3C(=O)C=CC3=O)CCC12 [U73122] (first compound 0.002 µM, partner dose 0.4 µM)",cell count,WM115,89.9%
same,cell count,WM1716,95%
same,cell count,WM1745,92.3%
same,cell count,WM3526,96.5%
same,cell count,WM3619,99.3%
same,cell count,WM451Lu,84%
"C[C@@H](Oc1cc(-c2cnn(C3CCNCC3)c2)cnc1N)c1c(Cl)ccc(F)c1Cl [Crizotinib] + C=CCn1c(=O)c2cnc(Nc3ccc(N4CCN(C)CC4)cc3)nc2n1-c1cccc(C(C)(C)O)n1 [MK1775] (first compound 0.2 µM, partner dose 0.02 µM)",cell count,WM115,70.4%
same,cell count,WM1716,88.7%
same,cell count,WM1745,85.4%
same,cell count,WM3526,87.4%
same,cell count,WM3619,69.3%
same,cell count,WM451Lu,121%
"CS(=O)(=O)CCNCc1ccc(-c2ccc3ncnc(Nc4ccc(OCc5cccc(F)c5)c(Cl)c4)c3c2)o1 [lapatinib] + O=C(O)C(=O)Nc1sc2c(c1C(=O)O)CCNC2 [TCS401] (first compound 0.8 µM, partner dose 1.66667 µM)",cell count,WM115,111%
same,cell count,WM1716,112%
same,cell count,WM1745,87.7%
same,cell count,WM3526,95.3%
same,cell count,WM3619,108%
same,cell count,WM451Lu,93.8%
"CS(=O)(=O)CCNCc1ccc(-c2ccc3ncnc(Nc4ccc(OCc5cccc(F)c5)c(Cl)c4)c3c2)o1 [lapatinib] + O=c1cc(-c2cccc3c2Sc2ccccc2S3)oc(N2CCOCC2)c1 [KU55933] (first compound 0.8 µM, partner dose 1 µM)",cell count,WM115,96.4%
same,cell count,WM1716,110%
same,cell count,WM1745,97.6%
same,cell count,WM3526,78.2%
same,cell count,WM3619,96%
same,cell count,WM451Lu,95.5%
"CN1CCN(c2ccc3nc(-c4c(N)c5c(F)cccc5[nH]c4=O)[nH]c3c2)CC1 [Dovitinib] + O=C(Nc1cccc(Cl)c1)Nc1ncc(CCNc2ncnc3ccsc23)s1 [SNS314] (first compound 0.1 µM, partner dose 0.0008 µM)",cell count,WM115,70.4%
same,cell count,WM1716,111%
same,cell count,WM1745,84.5%
same,cell count,WM3526,96.1%
same,cell count,WM3619,82%
same,cell count,WM451Lu,99.5%
"CN1CCN(c2ccc3nc(-c4c(N)c5c(F)cccc5[nH]c4=O)[nH]c3c2)CC1 [Dovitinib] + CCCCCCCCCCCC1=C(O)C(=O)C=C(O)C1=O [Embelin] (first compound 0.1 µM, partner dose 1.2 µM)",cell count,WM115,100%
same,cell count,WM1716,110%
same,cell count,WM1745,63.6%
same,cell count,WM3526,95.8%
same,cell count,WM3619,88.1%
same,cell count,WM451Lu,97.2%
"CN1CCN(c2ccc3nc(-c4c(N)c5c(F)cccc5[nH]c4=O)[nH]c3c2)CC1 [Dovitinib] + COc1ccc2c(c1)CCC1C2CCC2(C)C(NCCCCCCN3C(=O)C=CC3=O)CCC12 [U73122] (first compound 0.1 µM, partner dose 0.4 µM)",cell count,WM115,101%
same,cell count,WM1716,86.8%
same,cell count,WM1745,104%
same,cell count,WM3526,112%
same,cell count,WM3619,111%
same,cell count,WM451Lu,78.9%
"C[C@@H](Oc1cc(-c2cnn(C3CCNCC3)c2)cnc1N)c1c(Cl)ccc(F)c1Cl [Crizotinib] + O=C(Nc1cccc(Cl)c1)Nc1ncc(CCNc2ncnc3ccsc23)s1 [SNS314] (first compound 0.2 µM, partner dose 0.0008 µM)",cell count,WM115,76.5%
same,cell count,WM1716,113%
same,cell count,WM1745,112%
same,cell count,WM3526,94.8%
same,cell count,WM3619,126%
same,cell count,WM451Lu,88.7%
"C[C@@H](Oc1cc(-c2cnn(C3CCNCC3)c2)cnc1N)c1c(Cl)ccc(F)c1Cl [Crizotinib] + COc1cc(N2CCC(N3CCN(C)CC3)CC2)ccc1Nc1ncc(Cl)c(Nc2ccccc2S(=O)(=O)C(C)C)n1 [NVP-TAE684] (first compound 0.2 µM, partner dose 0.08 µM)",cell count,WM115,88.2%
same,cell count,WM1716,122%
same,cell count,WM1745,87.8%
same,cell count,WM3526,90.8%
same,cell count,WM3619,120%
same,cell count,WM451Lu,124%
